PubChem BioAssay AID485344 (National Center for Advancing Translational Sciences (NCATS), 2010)
The campaign covered roughly 340,000 compounds. About 6,900 (2%) were called active. No stated cut-off is given here; in the data, active means inhibition above about 30%; inactive means below that, where a call was filed. This is a selection; strong and weak results do not stand in their true shares. The source gives no active or inactive call for entries shown without one.

molecular target: D(2) dopamine receptor (Homo sapiens) (UniProt P14416); assay: HTS Assay for Allosteric Antagonists of the Human D2 Dopamine Receptor: Primary Screen for Antagonists; details: HEK293 TREx D2 cells, calcium flux, dopamine EC80; at 10 µM; stronger effect = higher value; further: 0% is about no effect
In short: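 In this primary screen, negative modulation is detected by tracking calcium flux after an EC80 dopamine challenge in inducible HEK293 T-REx D2 cells preexposed to test compound for 180 s.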

Chain of UniProt P14416 (P14416 whole entry, looked up): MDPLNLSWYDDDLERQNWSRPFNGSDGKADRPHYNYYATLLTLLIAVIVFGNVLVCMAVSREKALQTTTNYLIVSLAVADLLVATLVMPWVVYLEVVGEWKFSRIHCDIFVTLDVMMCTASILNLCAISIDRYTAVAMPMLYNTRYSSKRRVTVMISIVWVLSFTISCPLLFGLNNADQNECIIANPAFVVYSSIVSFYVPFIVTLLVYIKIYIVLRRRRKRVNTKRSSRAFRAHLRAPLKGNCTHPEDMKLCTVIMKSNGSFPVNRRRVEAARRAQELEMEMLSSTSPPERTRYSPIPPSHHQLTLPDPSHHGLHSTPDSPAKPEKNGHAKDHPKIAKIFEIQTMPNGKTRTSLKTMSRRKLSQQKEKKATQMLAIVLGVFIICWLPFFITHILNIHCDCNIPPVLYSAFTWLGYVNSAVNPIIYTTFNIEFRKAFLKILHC

Compound	inhibition
COc1ccc(CCNC(=O)CCn2c(=O)c3ccccc3n(CC(=O)Nc3ccc(C)cc3C)c2=O)cc1OC	-4.4%
CCOc1ccc(S(=O)(=O)c2cn(Cc3cc(C)ccc3C)c3ccc(OCC)cc3c2=O)cc1	-10.7%
CCOC(=O)Cn1c(=O)oc2cc(S(=O)(=O)N3CCN(c4ccc(C(C)=O)cc4)CC3)ccc21	26.7%
COc1cccc(Nc2nc3cc(Cl)c(Cl)cc3nc2-n2nc(C)cc2C)c1	13.1%
COc1ccc(NC(=O)Cn2nc(C)c3nn(-c4ccc(Cl)cc4)c(C)c3c2=O)cc1	16.9%
CCN(CCCNC(=O)c1cc(Nc2ccccc2OC)nc2ccccc12)c1cccc(C)c1	20.9%
CCN(CC)c1ccc(/C=C/C(=O)c2ccc(Br)cc2)cc1	active: 71%
COc1ccc(OC)c(CCNC(=O)c2c3c(nc4ccccc24)C(=O)N(C2CCCCC2)C3)c1	13.4%
COc1ccc(-c2noc(C3CC(=O)N(c4ccccc4)C3)n2)c(OC)c1 (configuration not stated)	11%
O=C(CSc1nc2c([nH]c3ccccc32)c(=O)n1-c1ccc(Cl)cc1)N1CCCC1	4.36%
Cc1cc(C)c(NC(=O)COc2ccc3c(C)cc(=O)oc3c2)c(C)c1	-9.76%
O=S(=O)(NCC(Nc1ccc(Cl)cc1)c1ccccc1)c1ccccc1 (configuration not stated)	-4.93%
COc1ccc(-c2cn3nc(SCC(=O)Nc4ccc(C)c(Cl)c4)ccc3n2)cc1	2.26%
Cc1ccc(NC(c2ccc(Cl)cc2)c2nnc(-c3cccc(F)c3)o2)cc1C (configuration not stated)	-11.1%
COC(=O)c1ccc(NC(=O)CN2C(=O)c3cccc4cccc2c34)cc1	-9.92%
COC(=O)CCNC(=O)N1CCN(c2nnc(C)c3c(C)n(-c4ccc(Cl)cc4)nc23)CC1	6.47%
Cc1ccccc1C(=O)OCCN(C)Cc1ccccc1	active: 31.5%
COc1ccccc1-n1c(-c2ccc(C)cc2)cn2c3c(=O)n(C)c(=O)n(C)c3nc12	-0.701%
Cc1nc(SCC(=O)Nc2ccccc2F)[nH]c(=O)c1Cc1ccccc1	-1.44%
COc1ccc(NC(=O)c2cnc[nH]2)cc1	9.91%
CCc1nn(CC(=O)NCc2ccccc2Cl)c(=O)c2cccn12	2.79%

Compound	inhibition
COc1ccc(CCNC(=O)c2ccc3c(c2)N(Cc2ccc(F)cc2)CCS3)cc1OC	-13.1%
Cc1nc(-c2ccc(S(=O)(=O)Nc3ccc(C)c(N(C)C)c3)cc2)co1	-1.22%
Cc1cc(C)cc(NC(=O)c2cccc3c2C(=O)N(C2CCCCC2)C3)c1	2.04%
COCCNc1nc(-c2cc3ccccc3o2)cs1	active: 37.9%
O=C(COc1ccccc1[N+](=O)[O-])Nc1ccc(-c2nc3ccccc3s2)cc1	-3.57%
Cc1cccc(OCC(=O)Nc2ccc3c(c2)nc(CCN2CCN(c4ccccn4)CC2)n3C)c1	active: 30.8%
CCOc1ccccc1CNC(=O)c1cccn1-c1nnc(N2CCCCC2)s1	8.13%
COc1ccccc1N1CCN(C(=O)c2cc(-c3ccccc3O)on2)CC1	25.8%
CCOc1ccc(C(=O)Nc2cc(-c3nc4ccccc4s3)ccc2OC)cc1	16%
COc1ccc(C2=C(Nc3ccc(C)c(C)c3)c3ccccc3C2=O)cc1	14.8%
Cc1c(C(=O)Nc2ccc(F)cc2)sc2nc[nH]c(=O)c12	-7.38%
CCc1ccccc1NC(=O)c1cc(S(=O)(=O)N2CCCc3ccccc32)ccc1F	3.38%
CC(C)CCn1c(=O)c2sccc2n2c(CCCC(=O)NCc3ccc(F)cc3)nnc12	5.25%
O=C(Cn1c(=O)c2cccn2c2ccc(F)cc21)N1CCN(c2ccc(F)cc2)CC1	11.2%
CCOc1ccc(N(C)C(CNS(=O)(=O)c2ccccc2)c2ccccc2)cc1 (configuration not stated)	-2.4%
COc1ccccc1-c1cc2nc(C)c(CCC(=O)NCc3cccc(Cl)c3)c(C)n2n1	15.5%
CC(=O)c1ccc(NC(=O)CN(C)S(=O)(=O)c2cccc3nsnc23)cc1	-18.4%
COc1cc2oc(=O)c(Br)c(C)c2c(OC)c1OC	active: 39.1%
CCOC(=O)C1CCCN(CCC(=O)Nc2cccc(C)c2)C1 (configuration not stated)	-4.06%
COc1ccc(N2CC(NC(=O)C3CC3)CC2=O)cc1OC (configuration not stated)	10.1%
COC(=O)c1cnn2c(C)c(Cc3c(C)cc(C)cc3C)c(C)nc12	20.1%

Compound	inhibition
O=C(Nc1nnc(S(=O)(=O)N2CCCc3ccccc32)s1)c1ccccc1	4.94%
O=c1c(CN2CCN(c3ccccn3)CC2)coc2ccccc12	active: 79.2%
CCC1CN(C(=O)Nc2cccc3c2CCCC3)c2ccccc2O1 (configuration not stated)	-27.3%
COc1ccc(NC(=O)CCn2c(=O)c3cccn3c3ccccc32)c(OC)c1	-20.5%
Cc1ccc2c(=O)cc(C(=O)Nc3ccc(S(=O)(=O)N(C)Cc4ccccc4)cc3)oc2c1	-8.72%
CCN(CC)S(=O)(=O)c1ccc2c(c1)c(=O)c(C(=O)N1CCN(c3cccc(C)c3)C(C)C1)cn2C (configuration not stated)	-6.91%
COc1cccc(C(C(=O)NC2CCCCC2)N(Cc2ccco2)C(=O)c2ccccn2)c1 (configuration not stated)	active: 34.1%
O=C(Nc1cccc(Cl)c1)c1ccc(F)c(S(=O)(=O)N2CCC3(CC2)OCCO3)c1	9.32%
Cc1cc(NC(=O)CCNS(=O)(=O)c2ccc3c(c2)oc(=O)n3C)ccc1Br	-3.59%
CCN(C(=O)Cn1nnc2sc(-c3ccccc3)cc2c1=O)c1cccc(C)c1	13.1%
COC(=O)C(C)Sc1ccc2nnc(CCNS(=O)(=O)c3ccccc3)n2n1 (configuration not stated)	active: 36.9%
CCN(CC)C(=O)c1cc(-c2ccc(Cl)cc2)on1	1.45%
CCC(C)NC(=O)CSc1nc2n[nH]c(C)c2c(=N)n1-c1ccc(C)c(Cl)c1 (configuration not stated)	3.64%
O=C(C1CCN(CCCc2ccccc2)CC1)N(CCc1ccccc1)Cc1ccccc1	active: 38.7%
O=C(Nc1ccc(F)cc1F)c1cc2nc(-c3ccco3)cc(C(F)(F)Cl)n2n1	1.86%
CCC(Sc1nc2ccccc2c2nc(-c3ccccc3)nn12)C(=O)Nc1cccc(OC)c1 (configuration not stated)	-0.24%
COC(=O)c1c(NC(=O)CS(=O)(=O)c2ccc(C)cc2)sc2c1CCCC2	-26.7%
Cc1ccc2oc(=O)c3cnn(CC(=O)N4CCN(c5ccccc5)CC4)c3c2c1	13.2%
Cc1c(Cl)cccc1NC(=O)CCN1C(=O)c2ccccc2Sc2ncccc21	-9.29%
COC(=O)c1cc(C(=O)N2CCN(c3cccc(Cl)c3)CC2)cc([N+](=O)[O-])c1	active: 30.2%
